# From the supplement of paper PMC8728848
# The list shows a part of the results.
# What was measured:
# Test in all cases: glycan array binding signal (z-score within array); higher = stronger binding
# Conditions in all cases: glycan notation: IUPAC condensed, linker removed
# [1] = target: Gal(b1-4)GlcNAc(b1-2)[Gal(b1-4)GlcNAc(b1-4)]Man(a1-3)[Gal(b1-4)GlcNAc(b1-2)[Gal(b1-4)GlcNAc(b1-6)]Man(a1-6)]Man(b1-4)GlcNAc(b1-4)GlcNAc
# Summary of the method: (§1)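 The binding signal is a Z-score computed within each array and averaged over linkers. Arrays of the same protein sequence at different concentrations or buffers were also averaged together. Data originate from 3228 arrays in the Consortium for Functional Glycomics database, kept only where the protein sequence was available.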
# [2] = target: Gal(b1-4)GlcNAc(b1-2)[Gal(b1-4)GlcNAc(b1-4)]Man(a1-3)[GlcNAc(b1-4)][Gal(b1-4)GlcNAc(b1-2)Man(a1-6)]Man(b1-4)GlcNAc(b1-4)GlcNAc
# Summary of the method: as §1
# [3] = target: Gal(b1-4)GlcNAc(b1-2)[Gal(b1-4)GlcNAc(b1-4)]Man(a1-3)[GlcNAc(b1-4)][Gal(b1-4)GlcNAc(b1-2)[Gal(b1-4)GlcNAc(b1-6)]Man(a1-6)]Man(b1-4)GlcNAc(b1-4)GlcNAc
# Summary of the method: as §1
# [4] = target: Gal(b1-4)GlcNAc(b1-2)[Gal(b1-4)GlcNAc(b1-6)]Man(a1-6)[Gal(b1-4)GlcNAc(b1-2)Man(a1-3)]Man(b1-4)GlcNAc(b1-4)GlcNAc
# Summary of the method: as §1
# [5] = target: Gal(b1-4)GlcNAc(b1-2)[Gal(b1-4)GlcNAc(b1-6)]Man(a1-6)[Gal(b1-4)GlcNAc(b1-2)Man(a1-3)]Man(b1-4)GlcNAc(b1-4)[Fuc(a1-6)]GlcNAc
# Summary of the method: as §1
# [6] = target: Gal(b1-4)GlcNAc(b1-2)[Gal(b1-4)GlcNAc(b1-6)]Man(a1-6)[GlcNAc(b1-4)][Gal(b1-4)GlcNAc(b1-2)Man(a1-3)]Man(b1-4)GlcNAc(b1-4)GlcNAc
# Summary of the method: as §1
# [7] = target: Gal(b1-4)GlcNAc(b1-2)[Gal(b1-4)GlcNAc(b1-6)]Man(a1-6)[GlcNAc(b1-4)][Gal(b1-4)GlcNAc(b1-2)[Gal(b1-4)GlcNAc(b1-4)]Man(a1-3)]Man(b1-4)GlcNAc(b1-4)[Fuc(a1-6)]GlcNAc
# Summary of the method: as §1
# [8] = target: Gal(b1-4)GlcNAc(b1-3)Gal(b1-3)GalNAc
# Summary of the method: as §1
# [9] = target: Gal(b1-4)GlcNAc(b1-3)Gal(b1-3)GlcNAc
# Summary of the method: as §1
# [10] = target: Gal(b1-4)GlcNAc(b1-3)Gal(b1-4)Glc
# Summary of the method: as §1
# [11] = target: Gal(b1-4)GlcNAc(b1-3)Gal(b1-4)GlcNAc
# Summary of the method: as §1
# [12] = target: Gal(b1-4)GlcNAc(b1-3)Gal(b1-4)GlcNAc(b1-2)Man(a1-3)[Gal(b1-4)GlcNAc(b1-3)Gal(b1-4)GlcNAc(b1-2)Man(a1-6)]Man(b1-4)GlcNAc(b1-4)GlcNAc
# Summary of the method: as §1
# [13] = target: Gal(b1-4)GlcNAc(b1-3)Gal(b1-4)GlcNAc(b1-2)Man(a1-3)[Gal(b1-4)GlcNAc(b1-3)Gal(b1-4)GlcNAc(b1-2)Man(a1-6)]Man(b1-4)GlcNAc(b1-4)[Fuc(a1-6)]GlcNAc
# Summary of the method: as §1
# [14] = target: Gal(b1-4)GlcNAc(b1-3)Gal(b1-4)GlcNAc(b1-2)[Gal(b1-4)GlcNAc(b1-3)Gal(b1-4)GlcNAc(b1-6)]Man(a1-6)[Gal(b1-4)GlcNAc(b1-3)Gal(b1-4)GlcNAc(b1-2)Man(a1-3)]Man(b1-4)GlcNAc(b1-4)GlcNAc
# Summary of the method: as §1
# [15] = target: Gal(b1-4)GlcNAc(b1-3)Gal(b1-4)GlcNAc(b1-2)[Gal(b1-4)GlcNAc(b1-3)Gal(b1-4)GlcNAc(b1-6)]Man(a1-6)[Gal(b1-4)GlcNAc(b1-3)Gal(b1-4)GlcNAc(b1-2)Man(a1-3)]Man(b1-4)GlcNAc(b1-4)[Fuc(a1-6)]GlcNAc
# Summary of the method: as §1
# [16] = target: Gal(b1-4)GlcNAc(b1-3)Gal(b1-4)GlcNAc(b1-3)Gal(b1-4)GlcNAc
# Summary of the method: as §1
# [17] = target: Gal(b1-4)GlcNAc(b1-3)Gal(b1-4)GlcNAc(b1-3)Gal(b1-4)GlcNAc(b1-2)Man(a1-3)[Gal(b1-4)GlcNAc(b1-3)Gal(b1-4)GlcNAc(b1-3)Gal(b1-4)GlcNAc(b1-2)Man(a1-6)]Man(b1-4)GlcNAc(b1-4)GlcNAc
# Summary of the method: as §1
# [18] = target: Gal(b1-4)GlcNAc(b1-3)Gal(b1-4)GlcNAc(b1-3)Gal(b1-4)GlcNAc(b1-2)Man(a1-3)[Gal(b1-4)GlcNAc(b1-3)Gal(b1-4)GlcNAc(b1-3)Gal(b1-4)GlcNAc(b1-2)Man(a1-6)]Man(b1-4)GlcNAc(b1-4)[Fuc(a1-6)]GlcNAc
# Summary of the method: as §1
# [19] = target: Gal(b1-4)GlcNAc(b1-3)Gal(b1-4)GlcNAc(b1-3)Gal(b1-4)GlcNAc(b1-2)[Gal(b1-4)GlcNAc(b1-3)Gal(b1-4)GlcNAc(b1-3)Gal(b1-4)GlcNAc(b1-6)]Man(a1-6)[Gal(b1-4)GlcNAc(b1-3)Gal(b1-4)GlcNAc(b1-3)Gal(b1-4)GlcNAc(b1-2)Man(a1-3)]Man(b1-4)GlcNAc(b1-4)[Fuc(a1-6)]GlcNAc
# Summary of the method: as §1
# [20] = target: Gal(b1-4)GlcNAc(b1-3)Gal(b1-4)GlcNAc(b1-3)Gal(b1-4)GlcNAc(b1-3)Gal(b1-4)GlcNAc(b1-2)Man(a1-3)[Gal(b1-4)GlcNAc(b1-3)Gal(b1-4)GlcNAc(b1-3)Gal(b1-4)GlcNAc(b1-3)Gal(b1-4)GlcNAc(b1-2)Man(a1-6)]Man(b1-4)GlcNAc(b1-4)GlcNAc
# Summary of the method: as §1
# [21] = target: Gal(b1-4)GlcNAc(b1-3)Gal(b1-4)GlcNAc(b1-3)Gal(b1-4)GlcNAc(b1-3)Gal(b1-4)GlcNAc(b1-2)Man(a1-3)[Gal(b1-4)GlcNAc(b1-3)Gal(b1-4)GlcNAc(b1-3)Gal(b1-4)GlcNAc(b1-3)Gal(b1-4)GlcNAc(b1-2)Man(a1-6)]Man(b1-4)GlcNAc(b1-4)[Fuc(a1-6)]GlcNAc
# Summary of the method: as §1
# [22] = target: Gal(b1-4)GlcNAc(b1-3)Gal(b1-4)GlcNAc(b1-3)Gal(b1-4)GlcNAc(b1-3)Gal(b1-4)GlcNAc(b1-2)[Gal(b1-4)GlcNAc(b1-3)Gal(b1-4)GlcNAc(b1-3)Gal(b1-4)GlcNAc(b1-3)Gal(b1-4)GlcNAc(b1-6)]Man(a1-6)[Gal(b1-4)GlcNAc(b1-3)Gal(b1-4)GlcNAc(b1-3)Gal(b1-4)GlcNAc(b1-3)Gal(b1-4)GlcNAc(b1-2)Man(a1-3)]Man(b1-4)GlcNAc(b1-4)[Fuc(a1-6)]GlcNAc
# Summary of the method: as §1
# [23] = target: Gal(b1-4)GlcNAc(b1-3)Gal(b1-4)GlcNAc(b1-3)Gal(b1-4)GlcNAc(b1-3)Gal(b1-4)GlcNAc(b1-3)Gal(b1-4)GlcNAc(b1-2)Man(a1-3)[Gal(b1-4)GlcNAc(b1-3)Gal(b1-4)GlcNAc(b1-3)Gal(b1-4)GlcNAc(b1-3)Gal(b1-4)GlcNAc(b1-3)Gal(b1-4)GlcNAc(b1-2)Man(a1-6)]Man(b1-4)GlcNAc(b1-4)GlcNAc
# Summary of the method: as §1
# [24] = target: Gal(b1-4)GlcNAc(b1-3)Gal(b1-4)GlcNAc(b1-3)Gal(b1-4)GlcNAc(b1-3)Gal(b1-4)GlcNAc(b1-3)Gal(b1-4)GlcNAc(b1-2)Man(a1-3)[Gal(b1-4)GlcNAc(b1-3)Gal(b1-4)GlcNAc(b1-3)Gal(b1-4)GlcNAc(b1-3)Gal(b1-4)GlcNAc(b1-3)Gal(b1-4)GlcNAc(b1-2)Man(a1-6)]Man(b1-4)GlcNAc(b1-4)[Fuc(a1-6)]GlcNAc
# Summary of the method: as §1
# [25] = target: Gal(b1-4)GlcNAc(b1-3)Gal(b1-4)GlcNAc(b1-3)Gal(b1-4)GlcNAc(b1-3)Gal(b1-4)GlcNAc(b1-3)Gal(b1-4)GlcNAc(b1-2)[Gal(b1-4)GlcNAc(b1-3)Gal(b1-4)GlcNAc(b1-3)Gal(b1-4)GlcNAc(b1-3)Gal(b1-4)GlcNAc(b1-3)Gal(b1-4)GlcNAc(b1-6)]Man(a1-6)[Gal(b1-4)GlcNAc(b1-3)Gal(b1-4)GlcNAc(b1-3)Gal(b1-4)GlcNAc(b1-3)Gal(b1-4)GlcNAc(b1-3)Gal(b1-4)GlcNAc(b1-2)Man(a1-3)]Man(b1-4)GlcNAc(b1-4)[Fuc(a1-6)]GlcNAc
# Summary of the method: as §1
# [26] = target: Gal(b1-4)GlcNAc(b1-3)Gal(b1-4)GlcNAc(b1-3)Gal(b1-4)GlcNAc(b1-3)Gal(b1-4)GlcNAc(b1-3)Gal(b1-4)GlcNAc(b1-3)Gal(b1-4)GlcNAc(b1-2)Man(a1-3)[Gal(b1-4)GlcNAc(b1-3)Gal(b1-4)GlcNAc(b1-3)Gal(b1-4)GlcNAc(b1-3)Gal(b1-4)GlcNAc(b1-3)Gal(b1-4)GlcNAc(b1-3)Gal(b1-4)GlcNAc(b1-2)Man(a1-6)]Man(b1-4)GlcNAc(b1-4)GlcNAc
# Summary of the method: as §1
# [27] = target: Gal(b1-4)GlcNAc(b1-3)Gal(b1-4)GlcNAc(b1-3)GalNAc
# Summary of the method: as §1
# [28] = target: Gal(b1-4)GlcNAc(b1-3)Gal(b1-4)GlcNAc(b1-3)[Gal(b1-4)GlcNAc(b1-3)Gal(b1-4)GlcNAc(b1-6)]GalNAc
# Summary of the method: as §1
# [29] = target: Gal(b1-4)GlcNAc(b1-3)Gal(b1-4)GlcNAc(b1-6)[Gal(b1-3)]GalNAc
# Summary of the method: as §1
# [30] = target: Gal(b1-4)GlcNAc(b1-3)Gal(b1-4)[Fuc(a1-3)GlcNAc(b1-6)]Gal(b1-4)Glc
# Summary of the method: as §1
binder,measurement,setting,value
"Siglec-F (Mus musculus), Q920G3 (protein) MRWAWLLPLLWAGCLATDGYSLSVTGSVTVQEGLCVFVACQVQYPNSKGPVFGYWFREGANIFSGSPVATNDPQRSVLKEAQGRFYLMGKENSHNCSLDIRDAQKIDTGTYFFRLDGSVKYSFQKSMLSVLVIALTEVPNIQVTSTLVSGNSTKLLCSVPWACEQGTPPIFSWMSSALTSLGHRTTLSSELNLTPRPQDNGTNLTCQVNLPGTGVTVERTQQLSVIYAPQKMTIRVSWGDDTGTKVLQSGASLQIQEGESLSLVCMADSNPPAVLSWERPTQKPFQLSTPAELQLPRAELEDQGKYICQAQNSQGAQTASVSLSIRSLLQLLGPSCSFEGQGLHCSCSSRAWPAPSLRWRLGEGVLEGNSSNGSFTVKSSSAGQWANSSLILSMEFSSNHRLSCEAWSDNRVQRATILLVSGPKVSQAGKSETSRGTVLGAIWGAGLMALLAVCLCLIFFTVKVLRKKSALKVAATKGNHLAKNPASTINSASITSSNIALGYPIQGHLNEPGSQTQKEQPPLATVPDTQKDEPELHYASLSFQGPMPPKPQNTEAMKSVYTEIKIHKC",glycan array binding signal (z-score),[1],-0.127
same,glycan array binding signal (z-score),[2],-0.117
same,glycan array binding signal (z-score),[3],-0.101
same,glycan array binding signal (z-score),[4],-0.093
same,glycan array binding signal (z-score),[5],0.07
same,glycan array binding signal (z-score),[6],-0.093
same,glycan array binding signal (z-score),[7],-0.149
same,glycan array binding signal (z-score),[8],-0.146
same,glycan array binding signal (z-score),[9],-0.127
same,glycan array binding signal (z-score),[10],-0.097
same,glycan array binding signal (z-score),[11],-0.096
same,glycan array binding signal (z-score),[12],-0.101
same,glycan array binding signal (z-score),[13],0.14
same,glycan array binding signal (z-score),[14],-0.051
same,glycan array binding signal (z-score),[15],-0.054
same,glycan array binding signal (z-score),[16],-0.052
same,glycan array binding signal (z-score),[17],-0.059
same,glycan array binding signal (z-score),[18],0.059
same,glycan array binding signal (z-score),[19],0.116
same,glycan array binding signal (z-score),[20],-0.059
same,glycan array binding signal (z-score),[21],0.093
same,glycan array binding signal (z-score),[22],-0.079
same,glycan array binding signal (z-score),[23],0.062
same,glycan array binding signal (z-score),[24],-0.101
same,glycan array binding signal (z-score),[25],0.053
same,glycan array binding signal (z-score),[26],0.161
same,glycan array binding signal (z-score),[27],-0.155
same,glycan array binding signal (z-score),[28],0.032
same,glycan array binding signal (z-score),[29],0.034
same,glycan array binding signal (z-score),[30],-0.086
